In PubChem BioAssay AID1458 (National Center for Advancing Translational Sciences (NCATS), 2008):
The whole screen tested about 210,000 compounds, of which about 5,900 (2.8%) were called active. Inconclusive results, whose numbers are uncertain, are shown with a selection of clear calls. Calls come from the whole dose curve; as a rule, active = well fitted activation curve with a large enough effect; inconclusive = small, poorly fitted or top-dose-only effect; inactive = no such curve, though single readings can be large or run the other way. Where the call is inconclusive, the potency comes from a doubtful curve fit.

Assay: qHTS Assay for Enhancers of SMN2 Splice Variant Expression; note: nearly all actives have a fitted effect of over 55% in size; for activity change, positive = activation: % of control where 0% means no effect
Conditions: HEK293 SMN2-luciferase splicing reporter, luminescence, 30-36 h; activity change, positive = activation: at 46.1 µM (top of the series)
How it was run: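 qHTS luciferase splicing reporter: luminescence rises when SMN2 exon 7 is included in transfected HEK293 cells. Compound exposure lasted 30-36 h at 37C, with 4.5 mM final sodium butyrate as control, followed by a ONE-Glo read.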
Potency is the fitted concentration of half-maximal effect; tags give direction and shape of the fitted curve.

| Compound | Potency | activity change, positive = activation |
| --- | --- | --- |
| CCOC(=O)c1cccc(NC(=O)CCc2c(C)nc3c4cccnc4nn3c2C)c1 | inconclusive: 5.62 µM [activator, single point] |  |
| CC1CCCCN1C(=O)c1cc(-c2ccc(Cl)c(Cl)c2)on1 (stereo unspecified) | inconclusive: 35.5 µM [activator, single point] |  |
| O=C(NCc1cccnc1)C1CCCN(S(=O)(=O)c2ccccc2)C1 (stereo unspecified) |  | inactive: -59.6% |
| CC(C)Oc1cccc(C(=O)NC2=NCCS2)c1 | active: 5.01 µM |  |
| Cc1cccc(N2CCN(C(=O)c3ccc4ncsc4c3)CC2)c1C | inconclusive: 2.82 µM [activator, full curve] |  |
| CCC(=O)Nc1ccc(N2CCCCC2)cc1 |  | inactive: -9.76% |
| Cc1nc(C)c(-c2csc(NCc3ccccc3)n2)s1 |  | inactive: -39.6% |
| CCn1c(=O)cc(SCC(=O)N2CCN(C3CCCCC3)CC2)c2ccccc21 | active: 10 µM |  |
| Cn1cnnc1SCC(=O)Nc1cc(S(=O)(=O)N2CCCCCC2)ccc1Cl |  | inactive: 4.77% |
| O=C1C=CC(=C(c2ccc(O)cc2)c2ccc(O)cc2)C=C1 |  | inactive: -75.8% |
| O=C(NCc1ccco1)c1cc(-c2cccnc2)nc2ccccc12 |  | inactive: -7.17% |
| Nc1nc(SCC(=O)c2cc(F)ccc2F)n[nH]1 |  | inactive: -0.695% |
| O=C(Nc1cccc(NC(=O)C2CC2)n1)C1CC1 |  | inactive: -31.5% |
| NC(=O)CSc1nnc(COc2ccccc2)n1C1CCCCC1 | inconclusive: 0.0224 µM [activator, full curve, poor fit] |  |
| CCc1nc(NCCCN2CCOCC2)c2oc3ccccc3c2n1 |  | inactive: 16.7% |
| COc1ccc(NC(=O)Cn2nnc(-c3ccccc3F)n2)cc1 | inconclusive: 0.0032 µM [activator, full curve, poor fit] |  |
| CCc1cc2c(=O)c(-c3nc4ccccc4n3C)c(C(C)C)oc2c(CN2CCN(C)CC2)c1O | inconclusive: 3.16 µM [activator, full curve] |  |
| O=C1c2cnc3ncnn3c2CC2c3ccccc3CCN12 (stereo unspecified) | inconclusive: 3.98 µM [activator, partial curve, poor fit] |  |
| Cc1ccc(-c2csc(NC(=O)c3cccs3)n2)cc1 | active: 11.2 µM |  |
| Oc1cccc(-c2nc3ncccn3c2Nc2cccc(C(F)(F)F)c2)c1 |  | inactive: -9.62% |
| COc1cc(OC)cc(-c2nnc(SCc3c(F)cccc3Cl)o2)c1 |  | inactive: 20.5% |
| Cc1sc(NC(=O)c2cccnc2)nc1-c1ccccc1 |  | inactive: 0.747% |
| O=C(Oc1ccc2c(c1)OCO2)c1ccc(Br)c(S(=O)(=O)N2CCOCC2)c1 | inconclusive: 20 µM [activator, single point] |  |
| COC(=O)c1sc2nc(-c3ccccc3)nc(N3CCN(C)CC3)c2c1C | inconclusive: 0.282 µM [activator, full curve] |  |
| Cc1cc(S(=O)(=O)Nc2ccc3ccccc3c2)c(C)s1 | inconclusive: 12.6 µM [activator, partial curve, poor fit] |  |
| CC(C)n1c(SC2C(=O)CC(C)(C)CC2=O)nc2c1c(=O)n(C)c(=O)n2C | active: 11.2 µM |  |

| Compound | Potency | activity change, positive = activation |
| --- | --- | --- |
| CCN(CC)c1ccc(/C=C(\C#N)c2ccccn2)cc1 | active: 1.41 µM |  |
| Cc1ccc(-c2noc(C3CCCN(C(=O)c4ccccc4)C3)n2)o1 (stereo unspecified) | inconclusive: 35.5 µM [activator, partial curve, poor fit] |  |
| CCOC(=O)C(C)N1C(=O)S/C(=C/c2ccc3c(c2)n(C)c(=O)n3C)C1=O (stereo unspecified) |  | inactive: 8.07% |
| CCC1=C2CC[C@H]3C(=O)N(CC)C(=O)[C@H]3[C@H]2[C@@]2(C)C(=NCC(=O)OC)OC(=O)N2C1=O |  | inactive: -0.0347% |
| Cc1cc(NC(=O)c2ccc3c(c2)OCCO3)no1 | active: 3.55 µM |  |
| N#CCCn1c(SCC(=O)NCC2CCCO2)nc2ccccc21 (stereo unspecified) | inconclusive: 31.6 µM [activator, single point] |  |
| CN[C@H]1[C@@H](O[C@@H]2[C@H](O[C@@H]3[C@@H](O)[C@@H](O)[C@@H](N=C(N)N)[C@@H](O)[C@@H]3N=C(N)N)O[C@H](C)[C@@]2(O)C=O)O[C@@H](CO)[C@@H](O)[C@H]1O |  | inactive: -0.583% [at 20.6 µM] |
| Cc1nc(-c2ccccc2)nc2[nH]ccc(=O)c12 | inconclusive: 15.8 µM [activator, partial curve, poor fit] |  |
| COc1ccc2oc(=Nc3ccccc3)c(-c3nc4ccccc4[nH]3)cc2c1 | active: 12.6 µM |  |
| O=C(N/N=C/c1ccccn1)c1cc(-c2ccc(Cl)cc2)nc2ccccc12 |  | inactive: -81.2% |
| CC(C)Oc1cccc(C(=O)O)c1 |  | inactive: -1.83% |
| COc1cc2c(cc1NC(=O)c1ccc(C(C)(C)C)cc1)CCCC2 | inconclusive: 3.55 µM [activator, full curve, poor fit] |  |
| CCCCCCCC1=Cc2ccccc2C(C(C(C)=O)C(=O)OC)N1C(=O)OC (stereo unspecified) |  | inactive: 1.55% [at 9.22 µM] |
| O=C(CN(C(=O)CCNC(=O)c1ccco1)c1ccccc1)NC1CCCC1 |  | inactive: -12.7% |
| Cc1cc(C)cc(N(CC(=O)Nc2ccccc2-c2ccccc2)S(=O)(=O)c2ccccc2)c1 |  | inconclusive: 62.9% [activator] |
| O=C(NC(=S)Nc1ccc2cn[nH]c2c1)c1ccccc1 | active: 17.8 µM |  |
| CCCCC(=O)Nc1cccc(-c2nnc(-c3ccccc3)o2)c1 | inconclusive: 35.5 µM [activator, single point] |  |
| COC(=O)c1ccc2c(=O)n(CCCCCC(=O)NCCNC(C)=O)c(=O)[nH]c2c1 |  | inactive: 7.29% |
| CS(=O)(=O)N(CC(=O)N1CCC(C(N)=O)CC1)C1CCCCC1 |  | inactive: -15% |
| c1ccc(-n2ncc3c(NCCCN4CCOCC4)ncnc32)cc1 | inconclusive: 25.1 µM [activator, single point] |  |
| CC(=O)c1cccc(NC(=O)C(OC(=O)c2cccs2)c2ccccc2)c1 (stereo unspecified) | inconclusive: 31.6 µM [activator, single point] |  |
| Cc1nc2ccc(NC(=O)Cc3cccs3)cc2s1 | inconclusive: 14.1 µM [activator, single point] |  |
| Cc1cc(N2C(=O)C(=O)/C(=C(/O)c3ccc(F)cc3)C2c2ccc(Cl)cc2)no1 (stereo unspecified) | inconclusive: 15.8 µM [activator, partial curve, poor fit] |  |
| CC(C)Cn1c(SCC(=O)N2CCc3ccccc3C2)nc2cc(Cl)ccc2c1=O |  | inactive: -37.8% |
| CC(C)CC(=O)Nc1cccc(-c2csc(-c3ccccc3)n2)c1 | inconclusive: 15.8 µM [activator, single point] |  |
| CCc1ccccc1NC(=O)CSc1nnc(Cn2cnc3ccccc32)o1 | inconclusive: 0.1 µM [activator, full curve, poor fit] |  |

| Compound | Potency | activity change, positive = activation |
| --- | --- | --- |
| CCCCCn1c(=O)c(-c2nc3ccccc3c(=O)[nH]2)c(O)c2ccccc21 | inconclusive: 11.2 µM [activator, partial curve] |  |
| CN(C)c1ccc(/C=N/NC(=O)c2ccc(Cn3cc(Br)cn3)o2)cc1 | inconclusive: 22.4 µM [activator, partial curve, poor fit] |  |
| CC1CCN(c2nc(-c3ccccc3)c(C#N)c(=O)[nH]2)CC1 | inconclusive: 5.01 µM [activator, partial curve, poor fit] |  |
| Nc1c(C(=O)Nc2nc3ccccc3s2)sc2nc(-c3cccs3)ccc12 | inconclusive: 3.16 µM [activator, partial curve, poor fit] |  |
| Cc1ccc(NC(=O)ON=C2CCCC2)cc1 | inconclusive: 25.1 µM [activator, single point] |  |
| CCOC(=O)/C=C1\SCC(=O)N1CC(=O)Nc1ccc(OC)c(OC)c1 | inconclusive: 0.0112 µM [activator, full curve, poor fit] |  |
| COc1ccc(-c2nc(-c3ccc(O)cc3O)cs2)cc1OC | inconclusive: 22.4 µM [activator, single point] |  |
| COc1ccc(NC(=O)C2CCN(Cc3cnn(-c4ccccc4)c3-n3cccc3)CC2)cc1OC |  | inactive: 12.2% |
| CC(=O)Nc1nc2ccccc2n1Cc1ccccc1C | inconclusive: 28.2 µM [activator, single point] |  |
| CC(C)Cn1c(N)c(S(=O)(=O)c2cccs2)c2nc3ccccc3nc21 | inconclusive: 10 µM [activator, partial curve, poor fit] |  |
| Cc1ccc(NC(=S)N2CCOCC2)c(C)c1 | inconclusive: 15.8 µM [activator, single point] |  |
| Cc1ccc(-c2csc3nnc(SCC(=O)Nc4cccc(C)n4)n23)cc1 | inconclusive: 0.0282 µM [activator, full curve, poor fit] |  |
| COc1ccc(/C=C/C(=O)c2ccc3c(c2)OCCO3)cc1[N+](=O)[O-] |  | inactive: 0.91% |
| NC(=O)C1CCN(C(=O)CNC(=O)c2ccccc2)CC1 | inconclusive: 35.5 µM [activator, single point] |  |
| O=C(NCc1cccs1)c1noc2c1CCCCC2 |  | inactive: 28.7% |
| O=C(Nc1ccncc1)c1ccc(-c2ccccc2)cc1 |  | inactive: -7.59% |
| COc1ccccc1-c1cc(C(F)(F)F)nc(S(=O)(=O)CCCC(=O)N2CCOCC2)n1 | inconclusive: 25.1 µM [activator, single point] |  |
| Cc1ccnc(NC(=O)Nc2cccc(F)c2)n1 | active: 11.2 µM |  |
| Cc1ccc(-c2cc(C(=O)N3CCCc4ccccc43)no2)cc1 | inconclusive: 17.8 µM [activator, single point] |  |
| Fc1ccccc1N1CCN(c2cnc3ccccc3n2)CC1 | active: 2.82 µM |  |
| COc1cccc(-c2nnc3sc(C4CCCCC4)nn23)c1 |  | inactive: -2.42% |
| O=C(Nc1nnc(-c2cccnc2)o1)c1ccccc1Cl |  | inactive: -33% |
| Cc1cc(C)n(-c2cc(N3CCN(C(=O)c4ccc(C(C)(C)C)cc4)CC3)ccc2[N+](=O)[O-])n1 |  | inactive: -63.7% |
| O=C1N/C(=N/O)S/C1=C/c1cccnc1 |  | inactive: 12.2% |
